About 6,000 (1.7%) of roughly 360,000 compounds were called active. This list was built around the results that the source calls inconclusive (neither active nor inactive); the mix of calls is not that of the screen. Calls follow the shape of the dose curve; as a rule, active = well fitted cell-killing curve with a large enough effect; inconclusive = small, poorly fitted or top-dose-only effect, or effect the other way; inactive = flat fitted curve, though single readings scatter. No potency is given beside an inconclusive call; the fits are too rough.
Assay: qHTS for induction of synthetic lethality in tumor cells producing 2HG: qHTS for the HT-1080-NT fibrosarcoma cell line;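 also: NT is the 2HG producing partner of a matched IDH1 knockdown line; nearly all actives have a fitted effect of over 55% in size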;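 as to activity, negative = less viability: 0% = DMSO-treated cells and -100% = media-only wells without cells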
Details: HT-1080-NT fibrosarcoma viability, CellTiter-Glo ATP luminescence, 48 h; activity, negative = less viability: at 46.1 µM (top of the series) unless noted
Method in brief: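 A 48-hour cytotoxicity screen used HT-1080-NT cells plated 2 hours before compound delivery. ATP-based CellTiter-Glo luminescence measured viability, normalized to DMSO and no-cell controls.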
Potency is read from the fitted curve at half-maximal effect; tags tell the direction and shape of the fitted curve.

| SMILES | Potency | activity, negative = less viability |
| --- | --- | --- |
| Cc1ccc2c(c1)C(=O)C(=O)N2Cc1ccc(Br)cc1 | inconclusive [cytotoxic, partial curve] |  |
| Cc1ccccc1Nc1nc(N)nc(CSc2nc3ccccc3c(=O)n2CCCO)n1 | inconclusive [cytotoxic, single point] |  |
| COC(=O)c1cc2ccsc2n1CC(=O)N(C)C1CCCCC1 |  | inactive: -10.8% |
| COc1ccc(CNC(=O)C/C(C)=N/NC(=O)COc2ccc(C)cc2Br)cc1 | active: 16.4 µM |  |
| O=C(O)c1ccc(CSCc2ccccc2Cl)o1 | inconclusive [cytotoxic, single point] |  |
| O=C1OC(c2cccc([N+](=O)[O-])c2)C2(CCCC2)C(=O)C12CCCCC2 (stereo not given) | inconclusive [cytotoxic, partial curve, poor fit] |  |
| Cc1ccc(C)c(NC(=O)CCC(=O)NNC(=O)COc2cc(C)ccc2C)c1 |  | inactive: -1.67% |
| Cc1ccc(Cl)cc1-c1cc(C(=O)NCC2CCCCC2)[nH]n1 | inconclusive [cytotoxic, single point] |  |
| COc1ccc2[nH]c3c(N4CCC(O)(c5cccc(C(F)(F)F)c5)CC4)ncnc3c2c1 | inconclusive [cytotoxic, single point] |  |
| Cc1ccc(-c2cnc(C(O)c3cccc(Cl)c3)[nH]2)cc1 (stereo not given) | inconclusive [cytotoxic, single point] |  |
| CCOC(=O)c1sc2nc(N3CCCC3)c3c(c2c1N)CC(C)(C)OC3 |  | inactive: -11% |
| N=c1c2c(n(Cc3ccc(F)cc3)c3c1CCC3)CCCC2 | inconclusive [cytotoxic, single point] |  |
| Cc1cc(=O)oc2cc(OCCSc3nnc(-c4ccccc4)o3)ccc12 | inconclusive [rising, single point] |  |
| CC(C)c1cc(C(=O)Nc2ccc3c(c2)OCO3)no1 |  | inactive: -15.2% |
| Cc1cc(C)cc(OCC(O)CN2CCC(CN3C(=O)c4cccc5cccc(c45)C3=O)CC2)c1 (stereo not given) | active: 18.4 µM |  |
| CC(C)(Oc1ccc(Cl)cc1)C(=O)NCC(c1cccs1)N1CCOCC1 (stereo not given) |  | inactive: -11.2% |
| CCc1ccc(N(C(=O)c2ccoc2C)C(C(=O)NC2CCCC2)c2ccc(OC)cc2)cc1 (stereo not given) |  | inactive: 16.9% |
| CCN1CCN(Cc2ccc(NC(=O)c3cc(NC(=O)c4nccnc4N)cc(OC)c3)cc2C(F)(F)F)CC1 |  | inactive: -21.3% |
| CN(C(=O)COC(=O)c1nc(Cl)c(Cl)c(Cl)c1Cl)C1CCS(=O)(=O)C1 (stereo not given) | active: 16.4 µM |  |
| C/C(=N\Nc1ccc(Cl)cc1)c1ccccn1 | inconclusive [cytotoxic, partial curve] |  |
| CSCCC(NC(=O)C1CCC(C)CC1)C(=O)NCCN1CCC(C)CC1 (stereo not given) | inconclusive [rising, single point] |  |
| CCCCC[C@H](C)N1C[C@H](COCc2ccccc2)Oc2cc(N3CCC[C@H]3CO)ccc2S1(=O)=O | inconclusive [cytotoxic, single point] |  |
| O=[N+]([O-])c1ccc(/C=N/n2c(CO)nc3ccccc32)s1 | inconclusive [cytotoxic, partial curve] |  |
| O=C(Nc1nc2ccccc2[nH]1)c1ccc(Cl)cc1 | inconclusive [cytotoxic, single point] |  |

| SMILES | Potency | activity, negative = less viability |
| --- | --- | --- |
| Cc1ccccc1-c1csc(C(O)c2ccc(F)c(F)c2)n1 (stereo not given) | inconclusive [cytotoxic, single point] |  |
| NC(c1csc(Nc2cc(Oc3ccccc3)ncn2)n1)c1ccccc1Cl (stereo not given) | inconclusive [cytotoxic, single point] |  |
| CCOC(=O)c1ccc(Oc2nc(NC(C)(C)C)nc(N(C)C)n2)cc1 | inconclusive [cytotoxic, single point] |  |
| Cc1ccc(NC(=O)Cn2c(O)c(N=NC(=O)c3ccncc3)c3ccccc32)cc1 |  | inactive: 13.8% |
| COC(=O)Cn1c2c(c3cc(C)ccc31)CCCC2 |  | inactive: 7.91% |
| CSc1c(CC(=O)Nc2ccccc2C(F)(F)F)n(Cc2ccccc2)c2ccccc12 | inconclusive [cytotoxic, single point] |  |
| CCCCC1C(=O)CC[C@H]2[C@@H]1CC(=O)[C@@H]2C/C=C\CCCC(=O)O (stereo not given in full) | inconclusive [cytotoxic, partial curve, poor fit] |  |
| Cc1ccccc1C(=O)N1CCc2cc(-c3csc(NC(=O)CN4CCCC4)n3)ccc21 | inconclusive [cytotoxic, single point] |  |
| C/C(=N\NC(=O)c1ccc(O)cc1)c1ccc2c(c1)Nc1ccccc1S2 | active: 18.4 µM |  |
| COc1ccc(/C=C2\SC(=O)N=C2N)cc1OC |  | inactive: -14.7% |
| COc1ccc(NC(=O)C2CCCN(S(=O)(=O)c3c(C)n[nH]c3C)C2)cc1OC (stereo not given) |  | inactive: 0.114% |
| O=C(Nc1ccc(-c2nc3ccccc3[nH]2)cc1)C1CCCO1 (stereo not given) | active: 10 µM |  |
| Cc1ccc2nc(-c3ccccc3C)oc(=O)c2c1 |  | inactive: 2.18% |
| COC(=O)c1ccc(NC(=O)c2cc(-c3ccncc3)nc3ccccc23)cc1 | inconclusive [cytotoxic, single point] |  |
| Cc1ccc([N+](=O)[O-])cc1-c1ccc(/C=C(\C#N)c2[nH]nc(N)c2C#N)o1 | inconclusive [cytotoxic, single point] |  |
| O=C(CNC(=O)c1cccs1)OCc1c(F)cccc1Cl |  | inactive: 23.7% |
| CC(=O)Nc1ccc(NC(=O)CCn2nnc3ccccc32)cc1 |  | inactive: -0.351% |
| Cc1ccccc1NC(=O)c1cccc(NC(=O)c2c(C(=O)O)cccc2[N+](=O)[O-])c1 | inconclusive [rising, single point] |  |
| COc1ccc(C[C@H]2CN3C(=NC[C@@H]3C(C)C)N2CCNC(=O)c2ccc(C)c(Br)c2)cc1 | inconclusive [cytotoxic, single point] |  |
| O=C(C1CC1)N1CCc2cc(S(=O)(=O)NCc3ccccc3)ccc21 | inconclusive [cytotoxic, single point] |  |
| Cc1cc(C)cc(OCC(=O)NNC(=O)c2ccccn2)c1 | inconclusive [cytotoxic, partial curve] |  |
| CCCCc1cc(=O)oc2cc(C)cc(OCc3nn[nH]n3)c12 | inconclusive [rising, full curve] |  |
| c1ccc(-c2oc3ncnc(NCCN4CCOCC4)c3c2-c2ccccc2)cc1 | inconclusive [cytotoxic, single point] |  |
| COc1ccc(N/C=C2\CCOC2=O)cc1 | inconclusive [cytotoxic, single point] |  |

| SMILES | Potency | activity, negative = less viability |
| --- | --- | --- |
| COCCOc1ccc(C(F)(F)F)cc1Nc1nc2ccccc2o1 | inconclusive [cytotoxic, single point] |  |
| COc1ccc(C(=O)N2CCCC(C(=O)O)C2)c2ccccc12 (stereo not given) |  | inactive: 3.45% |
| CCN(CC)S(=O)(=O)c1cc(C(=O)Nc2ccccc2C(=O)O)ccc1OC |  | inactive: -7.95% |
| O=C(c1cnccn1)N(Cc1cccs1)C1(C(=O)NC2CCCCC2)CCCCC1 | inconclusive [cytotoxic, partial curve, poor fit] |  |
| COCCCNc1ncnc2c1sc1nc(-c3ccco3)c3c(c12)CC(C)(C)OC3 | inconclusive [cytotoxic, partial curve] |  |
| COc1cccc(-c2cc(NC=O)c3ncc(-c4ccc(OC)c(OC)c4)n3c2)c1 | active: 2.91 µM |  |
| COc1ccc(N2CC(C(=O)N/N=C/c3ccc(C)cc3)CC2=O)cc1 (stereo not given) | active: 3.26 µM |  |
| COc1ccccc1-n1nnnc1SCC(=O)NC(=O)Cc1ccccc1 |  | inactive: 10.5% |
| Nn1cnnc1N/N=C/c1cccc(Cl)c1Cl | inconclusive [cytotoxic, single point] |  |
| FC(F)(F)c1cccc(-c2cc3nc(NCCOc4ccccc4)ccn3n2)c1 | inconclusive [cytotoxic, single point] |  |
| Cc1ccc(OCc2cc(C(=O)NC(C)Cc3cnccn3)no2)cc1C (stereo not given) |  | inactive: 7.67% |
| O=c1c2ccccc2nc(/C=C/c2ccc(O)cc2)n1CCc1ccccc1 | inconclusive [cytotoxic, single point] |  |
| CC1(CCc2ccccc2)NC(=S)N(c2ccc(Cl)cc2)N1 (stereo not given) | inconclusive [cytotoxic, full curve] |  |
| Cc1c(CCCl)c(Cl)n2c(nc3ccccc32)c1C#N | active: 2.59 µM |  |
| Cc1cccc(/C=N/Nc2cc(N3CCOCC3)nc(N3CCOCC3)n2)c1 | inconclusive [cytotoxic, single point] |  |
| O=C(Nc1nnc(-c2ccc3c(c2)CCCC3)o1)c1ccc(Cl)cc1Cl | inconclusive [cytotoxic, single point] |  |
| COc1cccc2c1[C@@H]1CN(CCCCn3c(=O)[nH]c4c(sc5ncc(-c6ccccc6)nc54)c3=O)C[C@@H]1CO2 | inconclusive [cytotoxic, partial curve, poor fit] |  |
| O=C(N/N=C/c1ccc(Cl)cc1)c1ccc2c(c1)OCO2 | inconclusive [cytotoxic, partial curve] |  |
| CC(C)(C)C(=O)N1CCN(c2ncnc3scc(-c4ccccc4)c23)CC1 |  | inactive: -22.6% |
| CCCCCCCCN1C(=O)[C@H](CC(=O)NCc2ccc(OC)c(OC)c2)C[C@@]2(C(=O)OC)CCCCC=C12 | inconclusive [cytotoxic, single point] |  |
| Cc1cc(C(=O)N/N=C/c2ccc3c(c2)OCO3)c2ccccc2n1 | inconclusive [cytotoxic, partial curve] |  |
| Cc1[nH]c2ccccc2c1C(C[N+](=O)[O-])c1cccs1 (stereo not given) | inconclusive [cytotoxic, partial curve, poor fit] |  |

— PubChem BioAssay AID686970 (National Center for Advancing Translational Sciences (NCATS), 2013)
